The values below come from publication PMC10405735.

By UniProt entry, the sequences of proteins in these tests, tags left out. Where a name states a change or a piece, a line headed by the entry shows the natural chain unless it says otherwise. Residues count along the entry.
UniProt O15218: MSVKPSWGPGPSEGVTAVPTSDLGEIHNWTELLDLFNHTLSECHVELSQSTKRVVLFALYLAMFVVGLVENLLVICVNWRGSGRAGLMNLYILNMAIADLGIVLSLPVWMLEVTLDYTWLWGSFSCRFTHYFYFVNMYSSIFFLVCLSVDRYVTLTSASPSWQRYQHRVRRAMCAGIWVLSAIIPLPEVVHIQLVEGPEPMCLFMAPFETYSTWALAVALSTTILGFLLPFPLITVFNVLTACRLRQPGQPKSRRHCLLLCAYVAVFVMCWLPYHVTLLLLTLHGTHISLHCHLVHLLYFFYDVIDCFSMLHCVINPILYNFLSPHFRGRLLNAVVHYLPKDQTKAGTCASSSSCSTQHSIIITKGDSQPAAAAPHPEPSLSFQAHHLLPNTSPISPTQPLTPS
UniProt P25106: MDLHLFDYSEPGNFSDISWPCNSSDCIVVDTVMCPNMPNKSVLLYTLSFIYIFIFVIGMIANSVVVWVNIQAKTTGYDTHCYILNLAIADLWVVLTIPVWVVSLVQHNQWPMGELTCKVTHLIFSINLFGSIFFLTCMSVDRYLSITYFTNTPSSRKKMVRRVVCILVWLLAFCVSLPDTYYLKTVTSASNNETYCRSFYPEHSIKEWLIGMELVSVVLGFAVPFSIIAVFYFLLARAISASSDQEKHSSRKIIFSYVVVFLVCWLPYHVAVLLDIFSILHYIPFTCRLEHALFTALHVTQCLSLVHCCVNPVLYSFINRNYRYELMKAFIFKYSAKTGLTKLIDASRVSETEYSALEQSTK
UniProt O43927, residues 23-109: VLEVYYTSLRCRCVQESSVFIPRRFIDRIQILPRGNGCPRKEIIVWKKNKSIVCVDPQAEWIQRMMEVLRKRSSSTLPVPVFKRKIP
UniProt P32121: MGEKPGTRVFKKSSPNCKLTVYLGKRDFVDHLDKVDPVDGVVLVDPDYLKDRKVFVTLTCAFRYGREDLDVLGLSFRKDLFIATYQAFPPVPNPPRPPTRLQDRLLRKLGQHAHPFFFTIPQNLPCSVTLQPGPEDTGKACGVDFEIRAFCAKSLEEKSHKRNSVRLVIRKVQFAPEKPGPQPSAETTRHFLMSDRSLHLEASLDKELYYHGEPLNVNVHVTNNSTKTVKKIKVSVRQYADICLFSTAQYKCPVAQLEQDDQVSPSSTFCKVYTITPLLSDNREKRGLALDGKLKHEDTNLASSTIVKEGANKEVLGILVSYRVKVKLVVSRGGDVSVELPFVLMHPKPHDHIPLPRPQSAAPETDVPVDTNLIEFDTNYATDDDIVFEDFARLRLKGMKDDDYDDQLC
UniProt P78556, residues 27-96: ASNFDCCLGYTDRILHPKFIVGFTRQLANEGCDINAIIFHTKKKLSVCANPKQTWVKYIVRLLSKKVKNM
UniProt O00585, residues 24-134: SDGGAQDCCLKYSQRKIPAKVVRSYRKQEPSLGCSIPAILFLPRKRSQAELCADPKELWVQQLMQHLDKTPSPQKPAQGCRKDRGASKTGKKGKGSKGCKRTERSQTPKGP
UniProt O89093, residues 28-97: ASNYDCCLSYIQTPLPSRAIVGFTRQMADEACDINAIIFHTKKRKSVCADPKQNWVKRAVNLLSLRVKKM
UniProt P10148, residues 24-148: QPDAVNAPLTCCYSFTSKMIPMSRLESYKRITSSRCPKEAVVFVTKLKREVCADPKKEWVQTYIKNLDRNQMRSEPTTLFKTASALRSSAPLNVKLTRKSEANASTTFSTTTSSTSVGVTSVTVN
UniProt P49407: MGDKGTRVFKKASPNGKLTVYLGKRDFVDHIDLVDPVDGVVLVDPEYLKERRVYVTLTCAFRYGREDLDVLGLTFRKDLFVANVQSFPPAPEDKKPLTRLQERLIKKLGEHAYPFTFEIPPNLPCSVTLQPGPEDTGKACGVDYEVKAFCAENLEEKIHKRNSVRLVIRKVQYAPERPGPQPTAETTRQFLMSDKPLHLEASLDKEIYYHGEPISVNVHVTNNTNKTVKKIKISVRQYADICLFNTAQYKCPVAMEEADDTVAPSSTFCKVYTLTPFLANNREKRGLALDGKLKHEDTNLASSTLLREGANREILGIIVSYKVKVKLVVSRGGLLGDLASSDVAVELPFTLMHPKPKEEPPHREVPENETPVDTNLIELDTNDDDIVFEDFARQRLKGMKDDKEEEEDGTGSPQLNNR
UniProt Q99731, residues 22-98: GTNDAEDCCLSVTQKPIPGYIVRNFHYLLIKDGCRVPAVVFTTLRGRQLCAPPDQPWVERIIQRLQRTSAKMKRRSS

Assay [1] addresses T1, murine GPR182 (mGPR182), expressed from mGPR182 T2A GFP in 300.19 pre-B cells (mouse) (UniProt P43142).
T1 sequence: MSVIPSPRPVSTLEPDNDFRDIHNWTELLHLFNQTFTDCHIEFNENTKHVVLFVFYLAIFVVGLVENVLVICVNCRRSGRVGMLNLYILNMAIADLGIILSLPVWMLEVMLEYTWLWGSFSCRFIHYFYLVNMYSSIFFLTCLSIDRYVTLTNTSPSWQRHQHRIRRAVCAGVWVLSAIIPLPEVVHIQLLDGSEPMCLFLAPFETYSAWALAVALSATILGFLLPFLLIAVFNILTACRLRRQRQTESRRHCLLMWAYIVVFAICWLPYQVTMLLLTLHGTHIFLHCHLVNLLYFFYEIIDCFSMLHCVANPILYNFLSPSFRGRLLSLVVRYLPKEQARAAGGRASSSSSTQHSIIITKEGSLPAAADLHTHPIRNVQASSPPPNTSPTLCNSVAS
Put plainly: flow cytometry on cells; competition binding at 4°C: 300.19 cells expressing mGPR182 or hGPR182 with 3 nM fluorescent chemokine and increasing concentrations of its unlabeled counterpart, 45 min; only the binder purified.

Assay [2] has as its target human GPR182 (hGPR182), expressed from hGPR182 T2A GFP in 300.19 pre-B cells (human) (UniProt O15218). The description is as above.
For assay [3], the target named is hACKR3 (T2A GFP) in 300.19 pre-B cells (human) (UniProt P25106). The assay can be described thus: flow cytometry on cells; binding: 300.19 pre-B cells stably expressing the receptor (T2A GFP) incubated with 100 or 200 nM fluorescently labelled chemokine at 4°C for 45 min; MFI of parental cells subtracted; only the binder purified. A general note: In flow cytometry, cells or beads pass a laser one at a time.

Assay [4] concerns the target T2, ACKR1 (T2A GFP) in 300.19 pre-B cells (UniProt Q16570).
T2 sequence: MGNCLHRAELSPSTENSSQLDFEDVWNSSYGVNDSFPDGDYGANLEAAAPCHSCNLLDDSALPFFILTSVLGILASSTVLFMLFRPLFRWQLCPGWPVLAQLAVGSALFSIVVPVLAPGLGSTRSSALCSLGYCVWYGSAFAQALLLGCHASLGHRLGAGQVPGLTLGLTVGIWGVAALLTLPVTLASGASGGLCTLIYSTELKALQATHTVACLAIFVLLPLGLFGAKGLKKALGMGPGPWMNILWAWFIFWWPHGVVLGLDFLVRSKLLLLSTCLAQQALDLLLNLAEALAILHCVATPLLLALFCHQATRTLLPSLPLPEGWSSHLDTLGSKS
The description is as above.

For assay [5], the target named is T1, murine GPR182 (mGPR182), expressed from mGPR182 T2A GFP in 300.19 pre-B cells (mouse). The assay is described as above.
The target of assay [6] is T3, ACKR2 (T2A GFP) in 300.19 pre-B cells (UniProt O00590).
T3 sequence: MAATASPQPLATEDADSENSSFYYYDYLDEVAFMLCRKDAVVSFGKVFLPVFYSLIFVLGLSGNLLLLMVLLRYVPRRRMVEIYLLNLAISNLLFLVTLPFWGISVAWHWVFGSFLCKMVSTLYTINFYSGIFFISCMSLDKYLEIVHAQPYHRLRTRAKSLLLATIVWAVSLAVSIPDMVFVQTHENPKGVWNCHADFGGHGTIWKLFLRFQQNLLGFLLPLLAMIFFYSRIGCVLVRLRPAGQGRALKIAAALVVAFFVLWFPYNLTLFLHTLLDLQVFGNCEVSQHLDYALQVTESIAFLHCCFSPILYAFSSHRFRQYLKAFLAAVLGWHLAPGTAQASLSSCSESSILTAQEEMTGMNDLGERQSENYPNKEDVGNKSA
Described as above.

Assay [7] deals with human GPR182 (hGPR182), expressed from hGPR182 T2A GFP in 300.19 pre-B cells (human) (UniProt O15218). The description is as above.
Assay [8] has as its target hACKR3 (T2A GFP) in 300.19 pre-B cells (human) (UniProt P25106). The assay can be described thus: flow cytometry on cells; uptake: 300.19 pre-B cells stably expressing the receptor (T2A GFP), together with parental cells, incubated with 20, 100 or 200 nM fluorescently labelled chemokine at 37°C for 45 min; MFI of parental cells subtracted; only the binder purified.
The target of assay [9] is T2, ACKR1 (T2A GFP) in 300.19 pre-B cells. The description is as above.
The target of assay [10] is T1, murine GPR182 (mGPR182), expressed from mGPR182 T2A GFP in 300.19 pre-B cells (mouse). The assay is described as above.
Assay [11] concerns the target T3, ACKR2 (T2A GFP) in 300.19 pre-B cells. The assay is described as above.
Assay [12] concerns the target human GPR182 (hGPR182), expressed from hGPR182 T2A GFP in 300.19 pre-B cells (human) (UniProt O15218). The description is as above.
The target of assay [13] is T1, murine GPR182 (mGPR182), expressed from mGPR182 T2A GFP in 300.19 pre-B cells (mouse). Put plainly: flow cytometry on cells; competition scavenging at 37°C: 300.19 cells expressing mGPR182 or hGPR182 with 3 nM fluorescent chemokine and increasing concentrations of its unlabeled counterpart, 45 min; only the binder purified.
The target of assay [14] is human GPR182 (hGPR182), expressed from hGPR182 T2A GFP in 300.19 pre-B cells (human) (UniProt O15218). Described as above.
For assay [15], the target named is T4, hCCR6-nLuc11 (human) (UniProt P51684).
T4 sequence: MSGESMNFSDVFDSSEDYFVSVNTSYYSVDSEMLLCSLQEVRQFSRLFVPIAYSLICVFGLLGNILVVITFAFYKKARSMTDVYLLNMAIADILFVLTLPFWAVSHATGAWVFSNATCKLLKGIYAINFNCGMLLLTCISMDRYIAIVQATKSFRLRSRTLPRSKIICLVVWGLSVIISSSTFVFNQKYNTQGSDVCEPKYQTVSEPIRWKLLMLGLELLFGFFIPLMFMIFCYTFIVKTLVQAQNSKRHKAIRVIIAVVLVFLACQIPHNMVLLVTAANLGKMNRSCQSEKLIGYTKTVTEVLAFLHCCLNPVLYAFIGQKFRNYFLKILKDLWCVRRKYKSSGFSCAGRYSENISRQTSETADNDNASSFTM
Put plainly: split reporter; HeLa cells co-transfected (1:1) with receptor-nLuc11 and β-arrestin with inserted nLuc156, coelenterazine H, 37°C; basal signal and after 300 nM chemokine.

Assay [16] addresses T5, mGPR182-nLuc11 (mouse) (UniProt P43142).
T5 sequence: T1 sequence
Described as above.

The target in assay [17] is T6, hACKR4 (T2A GFP) in 300.19 pre-B cells (human) (UniProt Q9NPB9).
T6 sequence: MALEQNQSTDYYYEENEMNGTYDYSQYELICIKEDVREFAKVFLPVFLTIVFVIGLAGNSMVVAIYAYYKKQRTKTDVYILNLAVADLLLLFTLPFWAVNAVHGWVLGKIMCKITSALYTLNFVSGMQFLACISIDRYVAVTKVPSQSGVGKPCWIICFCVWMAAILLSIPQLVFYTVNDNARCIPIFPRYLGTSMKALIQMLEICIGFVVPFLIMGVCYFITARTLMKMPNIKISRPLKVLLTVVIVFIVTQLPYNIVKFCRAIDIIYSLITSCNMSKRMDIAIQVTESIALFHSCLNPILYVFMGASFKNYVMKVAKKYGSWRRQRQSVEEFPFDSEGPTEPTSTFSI
Put plainly: flow cytometry on cells; uptake: 300.19 pre-B cells stably expressing the receptor (T2A GFP), together with parental cells, incubated with 20, 100 or 200 nM fluorescently labelled chemokine at 37°C for 45 min; MFI of parental cells subtracted; only the binder purified.

Assay [18] has as its target T7, mGPR182 T2A GFP in HEK293 cells (mouse) (UniProt P43142).
T7 sequence: T1 sequence
Put plainly: uptake of fluorescent chemokine by confocal microscopy; HEK293 cells expressing mGPR182 or hGPR182 (T2A GFP) incubated with 100-200 nM fluorescent chemokine at 37°C, fixed and imaged (3D reconstruction), or imaged live; only the binder purified.

For assay [19], the target named is hGPR182-nLuc11 (human) (UniProt O15218). Put plainly: split reporter; HeLa cells co-transfected (1:1) with receptor-nLuc11 and β-arrestin with inserted nLuc156, coelenterazine H, 37°C; basal signal and after 300 nM chemokine.

No constants are given. Whether binding was seen depends on the method and setting. For some of these results: Binding seen in cells or lysates may run through a third protein. Some entries that bind do so weakly or less than the wild type. For some of these results: Where a sequence is shown, tags or fusion partners need not be part of it.

For “hCXCL13, fluorescently labelled (from UniProt O43927 23-109) (ligand)”, the binding entry is given as “binds” in assay [1]; “binds” in assay [2]; “no binding (tested: 100 nM)” in assay [3]; “no binding (tested: 100 nM)” in assay [4]; “binds” in assay [5]; “no binding (tested: 100 nM)” in assay [6]. For the same substance, the binding entry is given as “binds” in [7]; “no binding (tested: 100 nM)” in [8]; “no binding (tested: 100 nM)” in [9]; “binds” in [10]; “no binding (tested: 100 nM)” in assay [11]; “binds” in [12]. Besides, the binding result in [13] and in [14] was “binds” throughout.

Consider “β-arrestin2i1-nLuc156 (from UniProt P32121 1-409)”, for which the binding result in assay [15] and in assay [16] was “binds” each time.

In the case of “hCCL20, fluorescently labelled (from UniProt P78556 27-96) (ligand)”, the binding result in assay [5], in [10] and in assay [12] was “binds” in each case.

As to “hCCL21, fluorescently labelled (from UniProt O00585 24-134) (ligand)”, the binding result is “binds” in assay [17], “binds weakly” in assay [10] and “binds weakly” in [12].

Regarding “mCCL20, fluorescently labelled (from UniProt O89093 28-97) (ligand)”, the binding result in assay [1] is on record as “binds”; in assay [18] it was “binds”; in assay [5], “binds”; in [10], “binds”; in assay [12], “no binding (tested: 200 nM)”.

As to “mCCL2, fluorescently labelled (from UniProt P10148 24-148) (ligand)”, the results for the binding entry in assay [10] and in assay [12] were “binds” and “binds weakly”, respectively.

As for “β-arrestin1A-nLuc156 (from UniProt P49407 1-418)”, the binding result in assay [15], in assay [16] and in assay [19] was “binds” each time.

For “hCCL19, fluorescently labelled (from UniProt Q99731 22-98) (ligand)”, the binding result in [2], in assay [5], in [10], in assay [12] and in assay [14] was “binds” in each case.
